Results on 26 compounds are retold here after PubChem BioAssay AID463173 (ICCB-Longwood Screening Facility, Harvard Medical School, 2010).

In all, about 52,000 compounds went through this assay and about 1,700 (3.3%) were called active. Cut-off read from the data, not from the text of the source: active = survival mostly below about 52% (no sharp cut-off); inactive = mostly above about 56%. The list shows a part of the results.

This assay has as its system Wild type. Description: S. aureus survival, RN4220 and DeltatarO strains – OD600, teichoic acid synthesis inhibitors, primary screen (AID 463173). The following applies: S. aureus RN4220 wild type/DeltatarO growth, OD600, 18 h, hits give low values, screened at 18.75 µg/mL (by protocol).
Turning to `Cc1ccc(Cl)cc1N(C)C(=O)c1cc2ccc3cccnc3c2[nH]1`, the survival was inactive: 82%.
On to `CCNC(=O)CC1C(=O)N(c2ccc(F)cc2)C(=O)N1Cc1ccc(C)cc1` (stereo unspecified), for which the survival is inactive: 77%.
In the case of `O=C(Nc1nnc(C2CCCC2)s1)C1CC1`, the survival is inactive: 105%.
As for `CC1(C)CC(C(CC(=O)O)Cc2ccccc2)CCO1` (stereo unspecified), the figure is inactive: 132%; as for `CCOc1ccccc1C(=O)NCC(c1ccc(N(C)C)cc1)N1CCCC1` (stereo unspecified), inactive: 80%.
With `CS(=O)(=O)N1CCC(N2CCN(Cc3ccc(F)cc3)C(=O)C2=O)CC1` the figure was inactive: 81%.
Regarding `CNC(=S)N(Cc1ccco1)Cc1cc2ccc(C)cc2[nH]c1=O`, the survival is inactive: 116%.
In the case of `CCn1c(CN2CCN(C)CC2)nc2cc(NC(=O)c3cc(OC)c(OC)c(OC)c3)ccc21`, the survival was inactive: 98%.
With `CSc1ccc(CCNC(=O)c2ccc3c(c2)c(C)c(C)n3Cc2ccc(F)cc2)cc1` the figure was inactive: 70%; with `COCCn1c(CNC(=O)c2cc(OC)c(OC)c(OC)c2)nc2cccnc21`, inactive: 83%.
On to `CCOC(=O)CNC(=O)Cn1nc(N2CCN(c3ccccc3)CC2)ccc1=O`, for which the survival is inactive: 82%.
`N#Cc1c(N)nc(SCC(=O)c2ccc(Cl)cc2)c(C#N)c1-c1ccco1`: the survival is inactive: 110%.
With `Cc1cc2ncn(C(=O)N3CCCCC3)c2cc1C` the figure was inactive: 104%.
Regarding `CC(=O)c1cccc(NC(=O)c2cc(-c3ccc4c(c3)OCCO4)on2)c1`, the survival is inactive: 77%.
With `CCN(CC)C(=O)C1CCCN(c2ncnc3c2nc2n3CCCCC2)C1` (stereo unspecified) the figure was inactive: 70%.
With `COc1ccc(CCNC(=O)c2cc3c(=O)[nH]c4ccc(C)cc4c3s2)cc1OC`, the survival was inactive: 64%.
As for `CCOc1ccccc1CNC(=O)CN1C(=O)C2CCCCN2c2ccc(C(=O)N(C)C)cc21` (stereo unspecified), the figure is inactive: 128%; as for `COC(=O)c1ccccc1NC(=O)CCCS(=O)(=O)c1nc(-c2ccccc2OC)cc(C(F)(F)F)n1`, inactive: 86%; as for `O=C(Nc1ccc2nsnc2c1)C1CC1`, inactive: 89%.
In the case of `COC(=O)c1ccc(NC(=O)c2c(NCc3ccc(OC)c(OC)c3)sc3c2CCCC3)cc1`, the survival was inactive: 76%.
For the compound `Cc1nn(C)c2c1c(C(F)(F)F)cc(=O)n2CC(=O)NC(C)(C)C`, the survival is inactive: 64%.
As for `CCOc1ccc(OCC)c(NC(=O)c2c(C)nn(-c3ccccc3)c2-n2cccc2)c1`, the figure is inactive: 32%; as for `COc1ccc(CCCc2nnc(SCC(=O)Nc3ccc(Cl)cc3)o2)cc1`, inactive: 89%.
With `CCc1ccc(CNC(=O)c2sc3ncnc(N(C)C4CCCCC4)c3c2C)cc1`, the survival is inactive: 94%.
As for `COc1ccc(-c2cc(-c3ccc(F)cc3)nc3c2COc2ccccc2-3)cc1`, the figure is inactive: 60%; as for `Cc1oc2ncnc(N3CCCCC3)c2c1C(=O)Nc1cccc(F)c1`, inactive: 134%.
